In patent US20160089386A1, “TREATING AND PREVENTING DISEASE WITH TMA AND TMAO LOWERING AGENTS” (The Cleveland Clinic Foundation, priority 2014, published 2016):

How the values were obtained:
[1] = tested on: in vivo thrombosis potential; experiment: Carotid artery FeCl exposure in vivo thrombosis model; set-up: species or system mice
[2] = Plasma TMAO in mice on chow or choline diet with or without ASA in drinking water; assay type: in vivo; settings: in both diets (chow and choline); p<0.05 in each diet
[3] = tested on: microbial TMA lyase; experiment: TMA lyase activity of Proteus mirabilis (PM) lysate; assay type: biochemical; settings: PM lysate, d9(trimethyl)choline as substrate, physiological range of ASA
Experimental: Using PM lysate (PM that is lysed in a French press to break open the cell wall and release enzyme contents) as the enzyme source, the TMA lyase activity (TMA producing activity) was examined in incubations with either d9(trimethyl)choline as substrate, or […] (GPC) as substrate. […] A further examination of the impact of ASA on TMA lyase activity by PM lysate was undertaken. Three mg of PM lysate was incubated with 25 uM choline and 25 uM choline(d9) in 2 ml PBS at 37 C for 20 hours. In FIG. 7, the dotted lines at 81 mg and 320 mg ASA represent reported steady state plasma levels of aspirin reported at those doses in human subjects. […] In light of this, in some embodiments, enteric coated aspirin or aspirin derivatives that have delayed absorption may be employed to treat disease since they would dissolve in the intestines past the stomach, such that the level of ASA or derivative delivered to the gut lumen will be higher. There exist even longer delayed release formulations of medications that could also be used.

Row | TMA production from substrate [3] | Compound | time to blood flow cessation ([1]; choline diet alone, p<0.0001) | reduction in TMAO level on addition of ASA [2] | prothrombotic phenotype ([1]; ASA added to the choline diet) | time to blood flow cessation ([1]; choline diet+ASA group relative to control (chow and no ASA))
1 |  | C[N+](C)(C)CCO [choline] | reduces the time to blood flow cessation |  |  | 
2 | inhibited TMA production | CC(=O)Oc1ccccc1C(=O)O [ASA, acetylsalicylic acid] |  | approx. 2 fold | attenuates the extent of prothrombotic phenotype | no difference
